Several values for one entry are separate records, joined by “and”; a condition that tells them apart may be missing. Equal entries are not always repeated. The shares of active, inactive and inconclusive entries below differ from those in the screen. For part of these data: A potency beside an inconclusive call is a rough fit, not a confirmed value. Where a structure was tested more than once in an assay, its records may differ in their call. Activity calls are given as the source filed them. Unless noted, the call rests on the fitted dose curve; in most records, active means well fitted curve in the direction sought with a large enough effect in the repeat runs; inconclusive means weak or mixed curves; inactive means no such curve, though single readings can be large; an effect the other way counts as inactive or inconclusive.
Legend:
[1] = qHTS RealTime-Glo MT Cell Viability Assay in HepG2 cells - 16 hour (AID 1224885); further: potency means the concentration at half of the fitted maximal effect; nearly all actives have a fitted effect of over 50% in size
Procedure, shortened: (§1)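 HepG2 suspension premixed with RealTime-Glo reagents is plated at 600 cells per well and left 5 h at 37 C/5% CO2. Compounds in DMSO then go in, and bioluminescence reflecting viable cell number is recorded over 40 h.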

[2] = qHTS RealTime-Glo MT Cell Viability Assay in HEK293 cells - 8 hour (AID 1224887); further: potency means the concentration at half of the fitted maximal effect; nearly all actives have a fitted effect of over 50% in size
Procedure, shortened: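 Viable HEK293 cells reduce a cell-permeant prosubstrate; the product diffuses out and is consumed by NanoLuc in the medium to give light. Compounds went in after a 5 h incubation and plates were read over the treatment course.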

[3] = A CellTox Green Cytotoxicity Assay to monitor cytotoxicity in HEK293 cells - 16 hour (AID 1224888); further: potency means the concentration at half of the fitted maximal effect; nearly all actives have a fitted effect of over 35% in size
Procedure, shortened: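 Fluorescence intensity, read at 0, 8, 16, 24, 32 and 40 h of compound treatment, reflected dye binding to DNA of dead HEK293 cells; compounds (23 nL, DMSO) were added 5 h after plating cells with reagent.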

[4] = qHTS assay to identify small molecule antagonists of the estrogen receptor alpha (ER-alpha) signaling pathway using the BG1 cell line in the presence of 0.1 nM 17-beta-estradiol - cell viability counter screen (AID 1259241); further: potency means the concentration at half of the fitted maximal effect; nearly all actives have a fitted effect of over 40% in size
Procedure, shortened: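 CellTiter-Fluor read (30 min, 37C) on ER-alpha/ERE-luc VM7Luc4E2 cells; 22 hr compound treatment; agonist 0.1 nM E2 final; same-well multiplex.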

[5] = qHTS assay to identify small molecule antagonists of the androgen receptor (AR) signaling pathway using the MDA cell line in the presence of 0.5 nM R1881 - cell viability counter screen (AID 1259242); further: potency means the concentration at half of the fitted maximal effect; nearly all actives have a fitted effect of over 45% in size
Procedure, shortened: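 Viability of MDA-kb2 cells was multiplexed with the luciferase AR readout; after 16 hr with compounds and R1881 at 0.5 nM final, CellTiter-Fluor fluorescence was recorded.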

[6] = qHTS assay to identify small molecule antagonists of the sonic hedgehog signaling (Shh) pathway (AID 1259369; calls by dose curve; further: potency means the concentration at half of the fitted maximal effect; nearly all actives have a fitted effect of over 45% in size)
Procedure, shortened: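 For antagonist detection, the reporter line received test compounds together with conditioned medium, incubated 24hr at 37 C, 5% CO2, then luminescence was recorded following 30min room-temperature luciferase reagent incubation.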

[7] = molecular target: Estrogen receptor beta (Homo sapiens) (UniProt Q92731); experiment: qHTS assay to identify small molecule agonists of the estrogen receptor beta (ER-beta) signaling pathway (AID 1259377; active means well fitted activation curve with a large enough effect in the signal ratio in the repeat runs, not every such curve was filed as active; inconclusive means weak or mixed curves, or effect the other way; the % refers to the signal ratio; further: potency means the concentration at half of the fitted maximal effect; on activation: on the % scale 0 is the no-effect control and ±100 the full control effect); conditions: ER-beta-UAS-bla HEK293T, beta-lactamase FRET ratio, 16 h; activation: at 92.4 µM (top of the series) unless noted
Procedure, shortened: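 Screening used GripTite ER-beta-UAS-bla cells held in 2% charcoal-stripped FBS medium. After overnight (16 hr) compound incubation at 37C, beta-lactamase activity was detected with a FRET substrate by fluorescence.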

[8] = A CellTox Green Cytotoxicity Assay to monitor cytotoxicity in HepG2 cells - 8 hour (AID 1224890); further: potency means the concentration at half of the fitted maximal effect; nearly all actives have a fitted effect of over 45% in size
Procedure, shortened: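 Using 1536-well format, dye-containing HepG2 suspension was seeded, allowed 5 h at 37 C/5% CO2, dosed by pintool with compounds, positive and negative controls, and imaged for fluorescence across 40 h.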

[9] = molecular target: Estrogen receptor (Homo sapiens) (UniProt P03372); experiment: qHTS assay to identify small molecule antagonists of the estrogen receptor alpha (ER-alpha) signaling pathway using the BG1 cell line in the presence of 0.1 nM 17-beta-estradiol (AID 1259244); further: potency means the concentration at half of the fitted maximal effect; nearly all actives have a fitted effect of over 50% in size
Procedure, shortened: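 Estradiol at 0.1 nM (final) stimulates the endogenous ER-alpha of VM7Luc4E2 cells carrying an ERE-driven luciferase; compounds are co-incubated 22 h at 37C and luciferase output quantified by luminescence.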

[10] = qHTS assay to identify small molecule agonists of the sonic hedgehog signaling (Shh) pathway - cell viability counter screen (AID 1259366); further: potency means the concentration at half of the fitted maximal effect; nearly all actives have a fitted effect of over 50% in size
Procedure, shortened: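 Fluorescence from CellTiter-Fluor reports live cells in this counter screen. NIH/3T3-derived Gli1-Luc reporter cells receive test compounds for 24hr at 37C; reagent goes in at 23hr.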

[11] = molecular target: Estrogen receptor beta (Homo sapiens) (UniProt Q92731); experiment: qHTS assay to identify small molecule antagonists of the estrogen receptor beta (ER-beta) signaling pathway (AID 1259378; active means well fitted inhibition curve with a large enough effect in the signal ratio in the repeat runs, not every such curve was filed as active; inconclusive means weak or mixed curves, or effect the other way; inactive means no such curve, though single readings can be large or run the other way; the % refers to the signal ratio; further: potency means the concentration at half of the fitted maximal effect; on activity, negative = inhibition: on the % scale 0 is the no-effect control and ±100 the full control effect); conditions: ER-beta-UAS-bla HEK293T, beta-lactamase FRET ratio, 16 h; activity, negative = inhibition: at 92.4 µM (top of the series) unless noted
Procedure, shortened: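 ER-beta-UAS-bla HEK293T (GripTite) cells in 2% charcoal-stripped FBS medium were preincubated 6 hr at 37C, dosed with compound, then stimulated with 1 nM E2 (final) for 16 hr; beta-lactamase reporter read by B/G FRET fluorescence after 2 hr substrate loading.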

[12] = qHTS assay to identify small molecule agonists of the androgen receptor (AR) signaling pathway in the presence of an antagonist - cell viability counter screen (AID 1259379); further: potency means the concentration at half of the fitted maximal effect; nearly all actives have a fitted effect of over 25% in size
Procedure, shortened: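 Seed MDA-kb2 at 3,000 cells/well; incubate 5 hr, 37C, 0% CO2. Add nilutamide to 3.0uM final, then pin compounds at 15 concentrations. Incubate 16 hr. Add CellTiter-Fluor at 15 hr, read fluorescence after 1 hr.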

[13] = qHTS RealTime-Glo MT Cell Viability Assay in HEK293 cells - 24 hour (AID 1224886)
Procedure, shortened: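 Reads taken at 0, 8, 16, 24, 32 and 40 h from the same wells. HEK293 cells (600/well) carried RealTime-Glo reagents from seeding, with compound added after a 5 h settle at 37 C.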

[14] = qHTS RealTime-Glo MT Cell Viability Assay in HepG2 cells - 0 hour (AID 1224889)
Procedure, shortened: as §1

[15] = qHTS assay to identify small molecule HDAC inhibitors - cell viability counter screen (AID 1259365)
Procedure, shortened: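 To flag cytotoxic hits, 1,500 wild-type HCT-116 cells per well, plated the day before, receive test compounds for 2hr at 37 C before CellTiter-Glo reagent and a luminescence read.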

[16] = qHTS assay to identify small molecule antagonists of the sonic hedgehog signaling (Shh) pathway - cell viability counter screen (AID 1259367); further: potency means the concentration at half of the fitted maximal effect; nearly all actives have a fitted effect of over 55% in size
Procedure, shortened: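 After a 4 hr settling period, 3T3 Gli1-Luc cells were treated with DMSO-dissolved chemicals and conditioned medium, kept 24 hr at 37C in 5% CO2, and assayed for viability by CellTiter-Fluor fluorescence following 1 hr reagent incubation.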

[17] = qHTS assay to identify small molecule phospholipidosis (PLD) inducers (AID 1259344; active means well fitted curve in the direction sought with a large enough effect; inconclusive means small, poorly fitted or top-dose-only effect, or another doubt; inactive means no such curve, though single readings can be large; an effect the other way counts as inactive or inconclusive; further: on the % scale 0 is the no-effect control and ±100 the full control effect)
Procedure, shortened: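 HepG2 cells grown on collagen I take up LipidTOX Red while exposed to compound for 24 h; after fixation they are imaged at 20x and pit metrics are extracted.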
Tags describe the fitted curve by direction and shape or compound fluorescence and quenching.

Chain of UniProt P03372 (P03372 whole entry, looked up): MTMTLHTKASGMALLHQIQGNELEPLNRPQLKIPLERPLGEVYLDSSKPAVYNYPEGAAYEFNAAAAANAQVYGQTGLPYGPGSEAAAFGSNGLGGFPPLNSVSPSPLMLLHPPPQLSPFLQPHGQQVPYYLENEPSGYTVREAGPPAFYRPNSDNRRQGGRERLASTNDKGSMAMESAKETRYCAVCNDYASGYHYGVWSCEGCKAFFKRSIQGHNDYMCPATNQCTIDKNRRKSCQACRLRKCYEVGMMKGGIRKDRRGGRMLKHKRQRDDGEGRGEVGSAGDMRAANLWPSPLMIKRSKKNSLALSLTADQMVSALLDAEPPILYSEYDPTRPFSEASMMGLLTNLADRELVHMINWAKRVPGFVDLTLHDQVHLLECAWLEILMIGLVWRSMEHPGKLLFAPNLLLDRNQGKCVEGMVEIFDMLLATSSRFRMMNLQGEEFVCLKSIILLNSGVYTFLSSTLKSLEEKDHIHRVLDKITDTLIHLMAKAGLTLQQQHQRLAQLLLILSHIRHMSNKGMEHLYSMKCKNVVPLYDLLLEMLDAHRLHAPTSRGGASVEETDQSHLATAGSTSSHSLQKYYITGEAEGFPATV
Chain of UniProt Q92731 (Q92731 whole entry, looked up): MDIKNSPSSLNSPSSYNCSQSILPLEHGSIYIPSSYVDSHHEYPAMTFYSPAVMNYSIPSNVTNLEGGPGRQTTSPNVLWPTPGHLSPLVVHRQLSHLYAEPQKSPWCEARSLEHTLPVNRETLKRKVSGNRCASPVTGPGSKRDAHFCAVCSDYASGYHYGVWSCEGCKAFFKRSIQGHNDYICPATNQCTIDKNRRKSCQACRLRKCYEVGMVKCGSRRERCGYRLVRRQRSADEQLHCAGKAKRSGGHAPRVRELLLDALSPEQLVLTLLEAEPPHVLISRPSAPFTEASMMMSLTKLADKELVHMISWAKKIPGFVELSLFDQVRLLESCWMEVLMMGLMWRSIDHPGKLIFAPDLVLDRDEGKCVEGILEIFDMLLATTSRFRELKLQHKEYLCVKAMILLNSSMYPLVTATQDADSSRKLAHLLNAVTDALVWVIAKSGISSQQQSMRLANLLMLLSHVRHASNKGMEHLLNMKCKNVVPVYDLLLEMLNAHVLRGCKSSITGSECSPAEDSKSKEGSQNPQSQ

Compound: O=C1c2ccccc2C(=O)N1SC(Cl)(Cl)Cl
- Potency [1]: inconclusive: 38.3 µM [cytotoxic, partial curve] and active: 19.5 µM
- Potency [2]: inconclusive: 1.21 µM [cytotoxic, full curve] and inconclusive: 1.95 µM [cytotoxic, full curve]
- Potency [3]: inconclusive: 54.2 µM [activator, single point]
- Potency [4]: inconclusive: 30.6 µM [cytotoxic, partial curve, poor fit]
- Potency [5]: inconclusive: 15.1 µM [cytotoxic, full curve] and inconclusive: 24.3 µM [cytotoxic, full curve]
- Potency [6]: active: 1.07 µM and active: 1.93 µM
- activation [7]: inconclusive: -11.8%

Compound: CN1C[C@H](C(=O)N[C@]2(C)O[C@@]3(O)[C@@H]4CCCN4C(=O)[C@H](Cc4ccccc4)N3C2=O)C=C2c3cccc4[nH]cc(c34)C[C@H]21
- Potency [1]: active: 19.6 µM and inconclusive: 12.8 µM [cytotoxic, partial curve]
- Potency [2]: inconclusive: 22 µM [cytotoxic, partial curve]
- Potency [3]: inconclusive: 43.8 µM [activator, partial curve, poor fit]
- Potency [8]: inconclusive: 18.1 µM [activator, partial curve]
- Potency [5]: inconclusive: 24.4 µM [cytotoxic, partial curve]
- Potency [9]: active: 27.4 µM
- Potency [10]: inconclusive: 3.45 µM [cytotoxic, full curve] and inconclusive: 8.03 µM [cytotoxic, partial curve]
- Potency [6]: inconclusive: 25.4 µM [inhibitor, single point]
- Potency [11]: active: 27.4 µM and inconclusive: 20.2 µM [inhibitor, partial curve]
- Potency [12]: inconclusive: 30.8 µM [cytotoxic, partial curve] and inconclusive: 18 µM [cytotoxic, partial curve]

Compound: O=S1(=O)OCC2C(CO1)C1(Cl)C(Cl)=C(Cl)C2(Cl)C1(Cl)Cl (centres undefined)
- Potency [1]: inconclusive: 38.9 µM [cytotoxic, partial curve]
- Potency [2]: inconclusive: 19.5 µM [cytotoxic, partial curve]
- Potency [5]: inconclusive: 68.6 µM [cytotoxic, partial curve, poor fit]
- Potency [9]: active: 54.5 µM
- Potency [10]: inconclusive: 68.6 µM [cytotoxic, partial curve, poor fit]
- Potency [7]: inconclusive: 27.3 µM [fluorescent, full curve]
- activity, negative = inhibition [11]: inconclusive: -15.1%
- Potency [12]: inconclusive: 77 µM [cytotoxic, single point]

Compound: CC(C)CC(C)Nc1ccc(Nc2ccccc2)cc1 (centres undefined)
- Potency [1]: inconclusive: 38.3 µM [cytotoxic, partial curve]
- Potency [13]: active: 21.5 µM
- Potency [14]: active: 24.1 µM
- Potency [4]: active: 53.5 µM
- Potency [9]: inconclusive: 60.1 µM [inhibitor]
- Potency [7]: inconclusive: 33.8 µM [rising, partial curve]
- Potency [11]: active: 30.1 µM
- Potency [12]: inconclusive: 67.4 µM [cytotoxic]

Compound: C=C(C)C(=O)[O][Sn]([CH2]CCC)([CH2]CCC)[CH2]CCC
- Potency [1]: active: 0.436 µM
- Potency [2]: active: 0.776 µM
- Potency [3]: active: 8.71 µM
- Potency [9]: active: 0.486 µM
- Potency [15]: active: 12.2 µM
- Potency [6]: active: 0.217 µM
- Potency [7]: inconclusive: 17.2 µM [falling, full curve]
- Potency [11]: inconclusive: 10.9 µM [cytotoxic, partial curve]

Compound: CCC(C)c1cc([N+](=O)[O-])cc([N+](=O)[O-])c1OC(=O)C=C(C)C (centres undefined)
- Potency [1]: inconclusive: 49 µM [cytotoxic, partial curve]
- Potency [2]: active: 49 µM
- Potency [4]: active: 61.1 µM
- Potency [5]: active: 61.1 µM
- Potency [10]: inconclusive: 68.6 µM [cytotoxic, single point]
- Potency [16]: inconclusive: 61.1 µM [cytotoxic, partial curve]

Compound: O=[N+]([O-])C(Br)(CO)CO
- Potency [1]: inconclusive: 54.9 µM [cytotoxic, single point]
- Potency [13]: inconclusive: 54.9 µM [cytotoxic, single point]
- Potency [8]: inconclusive: 54.9 µM [activator, single point]
- Potency [17]: inactive
- Potency [6]: active: 34.4 µM

Compound: Nc1ccccc1C(=O)OCCc1ccccc1
- Potency [1]: inconclusive: 34.7 µM [cytotoxic, partial curve, poor fit]
- Potency [2]: inconclusive: 34.8 µM [cytotoxic, partial curve]
